According to the supplement of paper PMC4967469:
By IC50 is meant the dose at which the fit gives 50% viability; where the fit passes the top or lowest dose, that dose stands as a limit. AUC is the area under the same curve over the 256-fold range up to the top dose, as a fraction; it is 1 without any effect and falls as sensitivity rises. For some assays here: Where the top dose is marked as inferred, it was derived from the fitted curves, not read from the paper.

Legend:
Assay in all cases: Viability of human cancer cell lines after 72 h of drug (GDSC screen)
IOX2 = compound: O=C(O)CNC(=O)c1c(O)c2ccccc2n(Cc2ccccc2)c1=O [IOX2]; settings: top dose 0.1 µM; top dose inferred
Method: (§1)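 Human cancer cell lines in 384-well plates, medium with 10% serum, drug for 72 h over a 256-fold dose range (nine 2-fold or five 4-fold steps up to the top dose). Adherent lines were fixed and stained with the nucleic acid dye Syto60, suspension lines read with resazurin; signal relative to control wells, capped at 0 and 100%. One two-parameter sigmoid per drug and line, fitted in a mixed model over all curves with the slope shared within a line.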

Midostaurin = compound: CO[C@@H]1[C@H](N(C)C(=O)c2ccccc2)C[C@H]2O[C@]1(C)n1c3ccccc3c3c4c(c5c6ccccc6n2c5c31)C(=O)NC4 [Midostaurin]; settings: top dose 0.512 µM; top dose inferred
Method: as §1

Mitomycin C = compound: CO[C@@]12[C@H](COC(N)=O)C3=C(C(=O)C(C)=C(N)C3=O)N1C[C@@H]1N[C@@H]12 [Mitomycin C]; settings: top dose 16 µM
Method: as §1

NVP-BHG712 = compound: Cc1ccc(C(=O)Nc2cccc(C(F)(F)F)c2)cc1Nc1nc(-c2cccnc2)nc2c1cnn2C [NVP-BHG712]; settings: top dose 10.24 µM; top dose inferred
Method: as §1

Bosutinib = compound: COc1cc(Nc2c(C#N)cnc3cc(OCCCN4CCN(C)CC4)c(OC)cc23)c(Cl)cc1Cl [Bosutinib]; settings: top dose 2 µM
Method: as §1

| Cell Line | AUC (IOX2) | IC50 (IOX2) [nM] | AUC (Midostaurin) | IC50 (Midostaurin) [nM] | AUC (Mitomycin C) | IC50 (Mitomycin C) [nM] | AUC (NVP-BHG712) | IC50 (NVP-BHG712) [nM] | AUC (Bosutinib) | IC50 (Bosutinib) [nM] |
| --- | --- | --- | --- | --- | --- | --- | --- | --- | --- | --- |
| SNU-C2B (large intestine, adherent) | 0.978 | > 100 | 0.98 | > 512 | 0.354 | 346 | 0.881 | > 10200 | 0.929 | > 2000 |
| OVKATE (ovary, adherent) | 0.801 | 95.9 | 0.972 | > 512 | 0.68 | 4480 | 0.776 | 7340 | 0.945 | > 2000 |
| LS-180 (large intestine, adherent) | 0.983 | > 100 | 0.882 | > 512 | 0.144 | 62.7 | 0.952 | > 10200 | 0.977 | > 2000 |
| CAL-12T (non-small cell lung carcinoma, adherent) | 0.976 | > 100 | 0.815 | 325 | 0.394 | – | 0.904 | > 10200 | 0.871 | > 2000 |
| G-361 (melanoma, adherent) | 0.987 | > 100 | 0.79 | 217 | 0.211 | 148 | 0.889 | > 10200 | 0.923 | > 2000 |
| FADU (head and neck, adherent) | 0.983 | > 100 | 0.922 | > 512 | 0.221 | 159 | 0.984 | > 10200 | 0.769 | 725 |
| 8505C (thyroid, adherent) | 0.925 | > 100 | 0.809 | 287 | 0.372 | 433 | 0.826 | 6710 | 0.904 | > 2000 |
| AN3-CA (endometrium, adherent) | 0.983 | > 100 | 0.805 | 288 | 0.366 | 411 | 0.955 | > 10200 | 0.977 | > 2000 |
| NCI-H2023 (lung adenocarcinoma, adherent) | 0.976 | > 100 | 0.903 | > 512 | 0.376 | 419 | 0.963 | > 10200 | 0.914 | > 2000 |
| BFTC-905 (bladder, adherent) | 0.983 | > 100 | 0.846 | 298 | 0.155 | 108 | 0.892 | 9090 | 0.959 | > 2000 |
| KLE (endometrium, adherent) | 0.964 | > 100 | 0.918 | > 512 | 0.649 | 3250 | 0.859 | > 10200 | 0.969 | > 2000 |
| SJRH30 (rhabdomyosarcoma, adherent) | 0.984 | > 100 | 0.926 | > 512 | 0.584 | 1710 | 0.986 | > 10200 | 0.977 | > 2000 |
| RT4 (bladder, adherent) | 0.974 | > 100 | 0.946 | > 512 | 0.563 | 1500 | 0.677 | 2050 | 0.986 | > 2000 |
| MOG-G-CCM (glioma, adherent) | 0.981 | > 100 | 0.779 | 245 | 0.574 | 1650 | 0.818 | 7030 | 0.849 | 1900 |
| EFM-192A (breast, adherent) | 0.984 | > 100 | 0.806 | 295 | 0.154 | 73.4 | 0.962 | > 10200 | 0.96 | > 2000 |
| SCC-25 (head and neck, adherent) | 0.982 | > 100 | 0.91 | > 512 | 0.458 | 758 | 0.894 | > 10200 | 0.936 | > 2000 |
| NCI-H1435 (lung adenocarcinoma, semi-adherent) | 0.992 | > 100 | 0.991 | > 512 | 0.307 | 307 | 0.989 | > 10200 | 0.985 | > 2000 |
| MDA-MB-436 (breast, adherent) | 0.981 | > 100 | 0.981 | > 512 | 0.592 | 1910 | 0.956 | > 10200 | 0.947 | > 2000 |
| TYK-nu (ovary, adherent) | 0.849 | 83.3 | 0.984 | > 512 | 0.201 | 120 | 0.969 | > 10200 | 0.886 | > 2000 |
| H2722 (mesothelioma, adherent) | 0.982 | > 100 | 0.849 | 504 | 0.695 | 3960 | 0.956 | > 10200 | 0.935 | > 2000 |
| T98G (glioma, adherent) | 0.987 | > 100 | 0.79 | 210 | 0.391 | 514 | 0.966 | > 10200 | 0.982 | > 2000 |
| SW948 (large intestine, adherent) | 0.979 | > 100 | 0.933 | > 512 | 0.698 | 4730 | 0.867 | > 10200 | 0.975 | > 2000 |
| HCC1395 (breast, adherent) | 0.976 | > 100 | 0.786 | 270 | 0.495 | 968 | 0.967 | > 10200 | 0.944 | > 2000 |
| FU97 (stomach, adherent) | 0.976 | > 100 | 0.915 | > 512 | 0.545 | 1330 | 0.915 | > 10200 | 0.956 | > 2000 |
| SW1417 (large intestine, adherent) | 0.982 | > 100 | 0.956 | > 512 | 0.516 | 1110 | 0.811 | 6580 | 0.977 | > 2000 |
| H513 (mesothelioma, semi-adherent) | 0.971 | > 100 | 0.948 | > 512 | 0.673 | 3400 | 0.961 | > 10200 | 0.939 | > 2000 |

| Cell Line | AUC (IOX2) | IC50 (IOX2) [nM] | AUC (Midostaurin) | IC50 (Midostaurin) [nM] | AUC (Mitomycin C) | IC50 (Mitomycin C) [nM] | AUC (NVP-BHG712) | IC50 (NVP-BHG712) [nM] | AUC (Bosutinib) | IC50 (Bosutinib) [nM] |
| --- | --- | --- | --- | --- | --- | --- | --- | --- | --- | --- |
| HuP-T4 (pancreas, adherent) | 0.916 | > 100 | 0.977 | > 512 | 0.214 | 136 | 0.755 | 3680 | 0.9 | > 2000 |
| C-33-A (cervix, adherent) | 0.939 | > 100 | 0.935 | > 512 | 0.388 | 493 | 0.848 | 7680 | 0.696 | 444 |
| OE33 (oesophagus, adherent) | 0.982 | > 100 | 0.935 | > 512 | 0.365 | 393 | 0.915 | > 10200 | 0.958 | > 2000 |
| HN (head and neck, adherent) | 0.972 | > 100 | 0.985 | > 512 | 0.467 | 818 | 0.988 | > 10200 | 0.838 | 1230 |
| HT-1197 (bladder, adherent) | 0.971 | > 100 | 0.979 | > 512 | 0.596 | 1930 | 0.981 | > 10200 | 0.971 | > 2000 |
| H2795 (mesothelioma, adherent) | 0.831 | 61.9 | 0.828 | 309 | 0.702 | 3660 | 0.877 | 10000 | 0.844 | 1400 |
| DoTc2-4510 (cervix, adherent) | 0.965 | > 100 | 0.836 | 315 | 0.232 | 175 | 0.934 | > 10200 | 0.909 | > 2000 |
| EFO-21 (ovary, adherent) | 0.963 | > 100 | 0.699 | 149 | 0.442 | 648 | 0.941 | > 10200 | 0.977 | > 2000 |
| HCC70 (breast, adherent) | 0.979 | > 100 | 0.947 | > 512 | 0.475 | 857 | 0.937 | > 10200 | 0.987 | > 2000 |
| YKG-1 (glioma, adherent) | 0.985 | > 100 | 0.796 | 244 | 0.42 | 603 | 0.959 | > 10200 | 0.903 | > 2000 |
| SW1573 (lung adenocarcinoma, adherent) | 0.929 | > 100 | 0.894 | > 512 | 0.272 | 176 | 0.981 | > 10200 | 0.913 | > 2000 |
| NCI-H2110 (non-small cell lung carcinoma, adherent) | 0.972 | > 100 | 0.943 | > 512 | 0.103 | < 62.5 | 0.827 | 6460 | 0.896 | > 2000 |
| NCI-H1651 (lung adenocarcinoma, adherent) | 0.985 | > 100 | 0.956 | > 512 | 0.08 | < 62.5 | 0.987 | > 10200 | 0.986 | > 2000 |
| BICR22 (head and neck, adherent) | 0.979 | > 100 | 0.903 | > 512 | 0.446 | 695 | 0.983 | > 10200 | 0.805 | 1200 |
| VMRC-MELG (melanoma, adherent) | 0.888 | > 100 | 0.987 | > 512 | 0.6 | 1910 | 0.969 | > 10200 | 0.989 | > 2000 |
| LC-1-sq (lung squamous cell carcinoma, adherent) | 0.96 | > 100 | 0.972 | > 512 | 0.446 | 693 | 0.972 | > 10200 | 0.825 | 1490 |
| CAL-27 (head and neck, adherent) | 0.837 | 69 | 0.985 | > 512 | 0.104 | < 62.5 | 0.942 | > 10200 | 0.755 | 688 |
| KYSE-520 (oesophagus, adherent) | 0.979 | > 100 | 0.837 | > 512 | 0.445 | 675 | 0.97 | > 10200 | 0.868 | > 2000 |
| KU-19-19 (bladder, adherent) | 0.983 | > 100 | 0.986 | > 512 | 0.708 | 3870 | 0.843 | 7270 | 0.937 | > 2000 |
| DK-MG (glioma, adherent) | 0.975 | > 100 | 0.876 | > 512 | 0.852 | > 16000 | 0.857 | > 10200 | 0.978 | > 2000 |
| ECC10 (stomach, suspension) | 0.978 | > 100 | 0.952 | > 512 | 0.684 | 3360 | 0.932 | > 10200 | 0.828 | 1310 |
| CAL-120 (breast, adherent) | 0.978 | > 100 | 0.766 | 244 | 0.697 | 4230 | 0.859 | > 10200 | 0.955 | > 2000 |
| PANC-02-03 (pancreas, adherent) | 0.979 | > 100 | 0.964 | > 512 | 0.508 | 1050 | 0.762 | 4350 | 0.918 | > 2000 |
| HSC-4 (head and neck, adherent) | 0.847 | > 100 | 0.959 | > 512 | 0.393 | 462 | 0.963 | > 10200 | 0.562 | 195 |
| LP-1 (myeloma, suspension) | 0.993 | > 100 | 0.986 | > 512 | 0.728 | 3890 | 0.916 | > 10200 | 0.993 | > 2000 |
